Where a name gives a salt, the structure may show the parent alone. ± gives the standard deviation of the averaged measurements. The list shows a part of the results.
Columns and labels:
Details in all cases: priming compound concentration 100 µM
hAMSC donor 1 [1] = test: Hoechst total cell count ratio vs vehicle control; higher = more cells (less toxicity)
hAMSC donor 2 [2] = test: as above
hAMSC donor 1 [3] = test: transgenic luciferase activity (RLU/mg protein) fold change vs vehicle control (ratio); higher = more transgene expression
hAMSC donor 2 [4] = test: as above
hAMSC donor 1 [5] = test: transfection efficiency (EGFP+ cells / Hoechst count) fold change vs vehicle control (ratio); hAMSC are human adipose-derived mesenchymal stem cells given an EGFP-luciferase plasmid by lipofection; higher = enhanced transfection
hAMSC donor 2 [6] = test: as above
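Wherever Hoechst total cell count ratio vs vehicle control is given: compound added 30 min before Lipofectamine 3000 lipoplex delivery, triplicate-well means expressed against DMSO vehicle control wells of the same 96-well plate.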
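Wherever transfection efficiency (EGFP+ cells / Hoechst count) fold change vs vehicle control is given: compounds added 30 min before Lipofectamine 3000 lipoplex transfection, triplicate means relative to DMSO vehicle wells on the same plate, luciferase RLU normalized to BCA total protein.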
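Wherever transgenic luciferase activity (RLU/mg protein) fold change vs vehicle control is given: compounds in DMSO added 30 min before Lipofectamine 3000 transfection of pEGFP-Luc in 96-well plates, values are means of triplicate wells over DMSO vehicle wells on the same plate.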

Cn1c(=O)c2nc[nH]c2n(C)c1=O [Theophylline]
Hoechst total cell count ratio (hAMSC donor 1 [1]): 1.18 ± 0.13 | Hoechst total cell count ratio (hAMSC donor 2 [2]): 0.906 ± 0.3 | transgenic luciferase activity (hAMSC donor 1 [3]): 0.71 ± 0.42 | transgenic luciferase activity (hAMSC donor 2 [4]): 0.501 ± 0.21 | transfection efficiency (hAMSC donor 1 [5]): 1.28 ± 0.18 | transfection efficiency (hAMSC donor 2 [6]): 0.922 ± 0.28

CCN(CC)C(=S)SSC(=S)N(CC)CC [Disulfiram]
Hoechst total cell count ratio (hAMSC donor 1 [1]): 0.0973 ± 0.013 | Hoechst total cell count ratio (hAMSC donor 2 [2]): 0.106 ± 0.047 | transgenic luciferase activity (hAMSC donor 1 [3]): 0.0129 ± 0.0049 | transgenic luciferase activity (hAMSC donor 2 [4]): 0.000424 ± 0.00012 | transfection efficiency (hAMSC donor 1 [5]): 1.62 ± 0.83 | transfection efficiency (hAMSC donor 2 [6]): 0.209 ± 0.049

Cc1cc2c(s1)Nc1ccccc1N=C2N1CCN(C)CC1 [Olanzapine]
Hoechst total cell count ratio (hAMSC donor 1 [1]): 1.61 ± 0.25 | Hoechst total cell count ratio (hAMSC donor 2 [2]): 1.06 ± 0.11 | transgenic luciferase activity (hAMSC donor 1 [3]): 0.62 ± 0.33 | transgenic luciferase activity (hAMSC donor 2 [4]): 0.853 ± 0.25 | transfection efficiency (hAMSC donor 1 [5]): 1.11 ± 0.079 | transfection efficiency (hAMSC donor 2 [6]): 0.773 ± 0.16

COc1ccc(OC)c(C(O)CNC(=O)CN)c1 (centres undefined) [Midodrine hydrochloride]
Hoechst total cell count ratio (hAMSC donor 1 [1]): 1.14 ± 0.17 | Hoechst total cell count ratio (hAMSC donor 2 [2]): 1.46 ± 0.038 | transgenic luciferase activity (hAMSC donor 1 [3]): 0.818 ± 0.19 | transgenic luciferase activity (hAMSC donor 2 [4]): 0.889 ± 0.018 | transfection efficiency (hAMSC donor 1 [5]): 0.89 ± 0.066 | transfection efficiency (hAMSC donor 2 [6]): 0.961 ± 0.13

CCOC(=O)[C@@]1(CCCCCCOc2ccc(Cl)cc2)CO1 [Etomoxir]
Hoechst total cell count ratio (hAMSC donor 1 [1]): 1.39 ± 0.22 | Hoechst total cell count ratio (hAMSC donor 2 [2]): 2.28 ± 0.063 | transgenic luciferase activity (hAMSC donor 1 [3]): 0.675 ± 0.33 | transgenic luciferase activity (hAMSC donor 2 [4]): 0.161 ± 0.12 | transfection efficiency (hAMSC donor 1 [5]): 0.776 ± 0.18 | transfection efficiency (hAMSC donor 2 [6]): 0.588 ± 0.018

CCOC(=O)CCC(=O)O[C@H]1[C@H](O[C@@H]2[C@@H](C)[C@H](O[C@H]3C[C@@](C)(OC)[C@@H](O)[C@H](C)O3)[C@@H](C)C(=O)O[C@H](CC)[C@@](C)(O)[C@H](O)[C@@H](C)C(=O)[C@H](C)C[C@@]2(C)O)O[C@H](C)C[C@@H]1N(C)C [Eryped]
Hoechst total cell count ratio (hAMSC donor 1 [1]): 1.61 ± 0.25 | Hoechst total cell count ratio (hAMSC donor 2 [2]): 1.42 ± 0.3 | transgenic luciferase activity (hAMSC donor 1 [3]): 1.37 ± 0.22 | transgenic luciferase activity (hAMSC donor 2 [4]): 0.747 ± 0.055 | transfection efficiency (hAMSC donor 1 [5]): 0.831 ± 0.15 | transfection efficiency (hAMSC donor 2 [6]): 0.954 ± 0.12

CN(CCCN1c2ccccc2CCc2ccccc21)CC(=O)c1ccc(Cl)cc1 [Lofepramine]
Hoechst total cell count ratio (hAMSC donor 1 [1]): 1.16 ± 0.21 | Hoechst total cell count ratio (hAMSC donor 2 [2]): 0.819 ± 0.057 | transgenic luciferase activity (hAMSC donor 1 [3]): 0.719 ± 0.23 | transgenic luciferase activity (hAMSC donor 2 [4]): 1.02 ± 0.092 | transfection efficiency (hAMSC donor 1 [5]): 0.877 ± 0.21 | transfection efficiency (hAMSC donor 2 [6]): 0.943 ± 0.11

O=C1Nc2ccccc2/C1=C1/Nc2ccccc2C1=O [Indirubin]
Hoechst total cell count ratio (hAMSC donor 1 [1]): 2.04 ± 0.13 | Hoechst total cell count ratio (hAMSC donor 2 [2]): 0.953 ± 0.17 | transgenic luciferase activity (hAMSC donor 1 [3]): 1.84 ± 0.33 | transgenic luciferase activity (hAMSC donor 2 [4]): 1.75 ± 0.71 | transfection efficiency (hAMSC donor 1 [5]): 1.1 ± 0.22 | transfection efficiency (hAMSC donor 2 [6]): 1.4 ± 0.35

COc1cc(Cc2cnc(N)nc2N)cc(OC)c1OC [Trimethoprim]
Hoechst total cell count ratio (hAMSC donor 1 [1]): 1.16 ± 0.089 | Hoechst total cell count ratio (hAMSC donor 2 [2]): 1.69 ± 0.23 | transgenic luciferase activity (hAMSC donor 1 [3]): 0.747 ± 0.4 | transgenic luciferase activity (hAMSC donor 2 [4]): 3.09 ± 0.51 | transfection efficiency (hAMSC donor 1 [5]): 1.16 ± 0.072 | transfection efficiency (hAMSC donor 2 [6]): 1.17 ± 0.13

NNC(=O)c1ccncc1 [Isoniazid]
Hoechst total cell count ratio (hAMSC donor 1 [1]): 1.3 ± 0.14 | Hoechst total cell count ratio (hAMSC donor 2 [2]): 1.44 ± 0.08 | transgenic luciferase activity (hAMSC donor 1 [3]): 1.38 ± 0.31 | transgenic luciferase activity (hAMSC donor 2 [4]): 0.67 ± 0.1 | transfection efficiency (hAMSC donor 1 [5]): 1.02 ± 0.14 | transfection efficiency (hAMSC donor 2 [6]): 1.24 ± 0.22

Cc1cccc(C)c1NC(=O)C(C)N (centres undefined) [Tocainide]
Hoechst total cell count ratio (hAMSC donor 1 [1]): 1.38 ± 0.14 | Hoechst total cell count ratio (hAMSC donor 2 [2]): 0.862 ± 0.43 | transgenic luciferase activity (hAMSC donor 1 [3]): 1 ± 0.2 | transgenic luciferase activity (hAMSC donor 2 [4]): 0.718 ± 0.09 | transfection efficiency (hAMSC donor 1 [5]): 0.994 ± 0.16 | transfection efficiency (hAMSC donor 2 [6]): 1.33 ± 0.33

NS(=O)(=O)c1cc2c(cc1Cl)N=CNS2(=O)=O [Chlorothiazide]
Hoechst total cell count ratio (hAMSC donor 1 [1]): 1.36 ± 0.17 | Hoechst total cell count ratio (hAMSC donor 2 [2]): 1.08 ± 0.03 | transgenic luciferase activity (hAMSC donor 1 [3]): 0.92 ± 0.6 | transgenic luciferase activity (hAMSC donor 2 [4]): 1.01 ± 0.72 | transfection efficiency (hAMSC donor 1 [5]): 1.2 ± 0.08 | transfection efficiency (hAMSC donor 2 [6]): 1.2 ± 0.22

Cc1c(O)c(=O)ccn1C [Deferiprone]
Hoechst total cell count ratio (hAMSC donor 1 [1]): 1.22 ± 0.19 | Hoechst total cell count ratio (hAMSC donor 2 [2]): 1.69 ± 0.2 | transgenic luciferase activity (hAMSC donor 1 [3]): 0.88 ± 0.43 | transgenic luciferase activity (hAMSC donor 2 [4]): 0.697 ± 0.085 | transfection efficiency (hAMSC donor 1 [5]): 0.924 ± 0.16 | transfection efficiency (hAMSC donor 2 [6]): 0.678 ± 0.0084

C[C@H]1C[C@H]2[C@@H]3CCC4=CC(=O)C=C[C@]4(C)[C@@]3(Cl)[C@@H](O)C[C@]2(C)[C@@]1(O)C(=O)CO [Beclomethasone]
Hoechst total cell count ratio (hAMSC donor 1 [1]): 1.3 ± 0.15 | Hoechst total cell count ratio (hAMSC donor 2 [2]): 1.97 ± 0.15 | transgenic luciferase activity (hAMSC donor 1 [3]): 7.02 ± 3.2 | transgenic luciferase activity (hAMSC donor 2 [4]): 4.27 ± 1.3 | transfection efficiency (hAMSC donor 1 [5]): 1.1 ± 0.026 | transfection efficiency (hAMSC donor 2 [6]): 1.19 ± 0.19

COc1cc(C(=O)NC2CCCNC2)cc(OC)c1OC (centres undefined) [Troxipide]
Hoechst total cell count ratio (hAMSC donor 1 [1]): 1.54 ± 0.37 | Hoechst total cell count ratio (hAMSC donor 2 [2]): 1.41 ± 0.21 | transgenic luciferase activity (hAMSC donor 1 [3]): 0.167 ± 0.079 | transgenic luciferase activity (hAMSC donor 2 [4]): 0.149 ± 0.016 | transfection efficiency (hAMSC donor 1 [5]): 0.983 ± 0.11 | transfection efficiency (hAMSC donor 2 [6]): 1.04 ± 0.064

C[C@H]1COc2c(C3(N)CC3)c(F)cc3c(=O)c(C(=O)O)cn1c23 [Pazufloxacin]
Hoechst total cell count ratio (hAMSC donor 1 [1]): 1.34 ± 0.28 | Hoechst total cell count ratio (hAMSC donor 2 [2]): 1.1 ± 0.1 | transgenic luciferase activity (hAMSC donor 1 [3]): 0.745 ± 0.48 | transgenic luciferase activity (hAMSC donor 2 [4]): 0.75 ± 0.036 | transfection efficiency (hAMSC donor 1 [5]): 1.09 ± 0.23 | transfection efficiency (hAMSC donor 2 [6]): 1.18 ± 0.33

CN(C)CCOC(c1ccc(Cl)cc1)c1ccccn1 (centres undefined) [Carbinoxamine maleate]
Hoechst total cell count ratio (hAMSC donor 1 [1]): 1.464 ± 0.011 | Hoechst total cell count ratio (hAMSC donor 2 [2]): 1.77 ± 0.27 | transgenic luciferase activity (hAMSC donor 1 [3]): 0.519 ± 0.23 | transgenic luciferase activity (hAMSC donor 2 [4]): 0.512 ± 0.18 | transfection efficiency (hAMSC donor 1 [5]): 1.29 ± 0.16 | transfection efficiency (hAMSC donor 2 [6]): 1.05 ± 0.039

OCCN1C[C@H](O)[C@@H](O)[C@H](O)[C@H]1CO [Miglitol]
Hoechst total cell count ratio (hAMSC donor 1 [1]): 1.1 ± 0.017 | Hoechst total cell count ratio (hAMSC donor 2 [2]): 1.07 ± 0.095 | transgenic luciferase activity (hAMSC donor 1 [3]): 1.19 ± 0.63 | transgenic luciferase activity (hAMSC donor 2 [4]): 1.08 ± 0.58 | transfection efficiency (hAMSC donor 1 [5]): 1.38 ± 0.29 | transfection efficiency (hAMSC donor 2 [6]): 1.07 ± 0.065

CC(=O)[C@H]1CC[C@H]2[C@@H]3C[C@H](C)C4=CC(=O)CC[C@]4(C)[C@H]3[C@@H](O)C[C@]12C [Medrysone]
Hoechst total cell count ratio (hAMSC donor 1 [1]): 1.07 ± 0.1 | Hoechst total cell count ratio (hAMSC donor 2 [2]): 1.81 ± 0.27 | transgenic luciferase activity (hAMSC donor 1 [3]): 4.6 ± 0.77 | transgenic luciferase activity (hAMSC donor 2 [4]): 1.84 ± 0.25 | transfection efficiency (hAMSC donor 1 [5]): 1.22 ± 0.27 | transfection efficiency (hAMSC donor 2 [6]): 1.36 ± 0.13

Cc1ccccc1C(OCCN(C)C)c1ccccc1 (centres undefined) [Orphenadrine hydrochloride]
Hoechst total cell count ratio (hAMSC donor 1 [1]): 1.24 ± 0.15 | Hoechst total cell count ratio (hAMSC donor 2 [2]): 1.39 ± 0.15 | transgenic luciferase activity (hAMSC donor 1 [3]): 0.382 ± 0.15 | transgenic luciferase activity (hAMSC donor 2 [4]): 0.718 ± 0.054 | transfection efficiency (hAMSC donor 1 [5]): 0.786 ± 0.29 | transfection efficiency (hAMSC donor 2 [6]): 0.637 ± 0.083

O=C(O)CCNC(=O)c1ccc(/N=N/c2ccc(O)c(C(=O)O)c2)cc1 [Balsalazide]
Hoechst total cell count ratio (hAMSC donor 1 [1]): 1.09 ± 0.087 | Hoechst total cell count ratio (hAMSC donor 2 [2]): 1.15 ± 0.12 | transgenic luciferase activity (hAMSC donor 1 [3]): 2.24 ± 1.1 | transgenic luciferase activity (hAMSC donor 2 [4]): 1.48 ± 0.5 | transfection efficiency (hAMSC donor 1 [5]): 1.62 ± 0.5 | transfection efficiency (hAMSC donor 2 [6]): 1.04 ± 0.23

CC(COc1ccccc1Cc1ccccc1)N1CCCCC1 (centres undefined) [Benproperine phosphate]
Hoechst total cell count ratio (hAMSC donor 1 [1]): 0.9997 ± 0.0084 | Hoechst total cell count ratio (hAMSC donor 2 [2]): 0.597 ± 0.25 | transgenic luciferase activity (hAMSC donor 1 [3]): 4.45 ± 0.31 | transgenic luciferase activity (hAMSC donor 2 [4]): 1.45 ± 0.34 | transfection efficiency (hAMSC donor 1 [5]): 1.61 ± 0.69 | transfection efficiency (hAMSC donor 2 [6]): 1.28 ± 0.37

CN(C)CCN(Cc1ccccc1)c1ccccn1 [Tripelennamine hydrochloride]
Hoechst total cell count ratio (hAMSC donor 1 [1]): 1.18 ± 0.14 | Hoechst total cell count ratio (hAMSC donor 2 [2]): 1.15 ± 0.11 | transgenic luciferase activity (hAMSC donor 1 [3]): 0.487 ± 0.2 | transgenic luciferase activity (hAMSC donor 2 [4]): 0.503 ± 0.059 | transfection efficiency (hAMSC donor 1 [5]): 1.23 ± 0.11 | transfection efficiency (hAMSC donor 2 [6]): 0.855 ± 0.17

COc1cc(C(=O)NS(=O)(=O)c2ccccc2C)ccc1Cc1cn(C)c2ccc(NC(=O)OC3CCCC3)cc12 [Zafirlukast]
Hoechst total cell count ratio (hAMSC donor 1 [1]): 1.5 ± 0.066 | Hoechst total cell count ratio (hAMSC donor 2 [2]): 1.7 ± 0.27 | transgenic luciferase activity (hAMSC donor 1 [3]): 0.285 ± 0.021 | transgenic luciferase activity (hAMSC donor 2 [4]): 0.684 ± 0.034 | transfection efficiency (hAMSC donor 1 [5]): 0.558 ± 0.041 | transfection efficiency (hAMSC donor 2 [6]): 0.321 ± 0.1

From the supplement of paper PMC7238544
